# Reference: the supplement of paper PMC8728848
# The list shows a part of the results.
# B1: Pwp4 (Candida glabrata) (protein)
# chain: MGSSHHHHHHSSGLVPRGSHMASVGNPITVSNVCSFPKNWHRTAGFRALTARLGIGIQSDSYKELLNYPGTFQLTTQQSSTTKPNFQISGLVGNIYGLTIVPSYLLVELTGYFVPPVSGEYTFSLEGSDDAAIIFIANPSTFKCGHVEDWPTAYDNDVTVTESIHATRTIYMIEGVAYPIRIAYYNGLSLGKLQASFTDPEGVKRVDWNGYIWRYDSCDTCSYV
# Experiments:
# Test in all cases: glycan array binding signal (z-score within array); higher = stronger binding
# Conditions in all cases: glycan notation: IUPAC condensed, linker removed
# Gal(b1-4)Glc = target: Gal(b1-4)Glc
# How it was run: (§1)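 The binding signal is a Z-score computed within each array. Data were drawn from 3228 arrays in the Consortium for Functional Glycomics database, restricted to those with a known protein sequence. Scores were averaged over arrays of the same protein sequence at different concentrations or buffers, and over linkers, and negative values can be taken as non-binding.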
# Gal(b1-4)Glc6S = target: Gal(b1-4)Glc6S
# How it was run: as §1
# Gal(b1-4)GlcNAc = target: Gal(b1-4)GlcNAc
# How it was run: as §1
# [1] = target: Gal(b1-4)GlcNAc(a1-6)Gal(b1-4)GlcNAc
# How it was run: as §1
# Gal(b1-4)GlcNAc(b1-2)Man = target: Gal(b1-4)GlcNAc(b1-2)Man
# How it was run: as §1
# [2] = target: Gal(b1-4)GlcNAc(b1-2)Man(a1-3)Man(b1-4)GlcNAc(b1-4)GlcNAc
# How it was run: as §1
# [3] = target: Gal(b1-4)GlcNAc(b1-2)Man(a1-3)[Gal(b1-4)GlcNAc(b1-2)Man(a1-6)]Man(b1-4)GlcNAc(b1-4)GlcNAc
# How it was run: as §1
# [4] = target: Gal(b1-4)GlcNAc(b1-2)Man(a1-3)[Gal(b1-4)GlcNAc(b1-2)Man(a1-6)]Man(b1-4)GlcNAc(b1-4)[Fuc(a1-6)]GlcNAc
# How it was run: as §1
# [5] = target: Gal(b1-4)GlcNAc(b1-2)Man(a1-3)[Gal(b1-4)GlcNAc(b1-2)Man(a1-6)][Gal(b1-4)GlcNAc(b1-4)]Man(b1-4)GlcNAc(b1-4)[Fuc(a1-6)]GlcNAc
# How it was run: as §1
# [6] = target: Gal(b1-4)GlcNAc(b1-2)Man(a1-3)[Gal(b1-4)GlcNAc(b1-2)Man(a1-6)][GlcNAc(b1-4)]Man(b1-4)GlcNAc(b1-4)[Fuc(a1-6)]GlcNAc
# How it was run: as §1
# [7] = target: Gal(b1-4)GlcNAc(b1-2)Man(a1-3)[GlcNAc(b1-2)Man(a1-6)]Man(b1-4)GlcNAc(b1-4)GlcNAc
# How it was run: as §1
# [8] = target: Gal(b1-4)GlcNAc(b1-2)Man(a1-3)[GlcNAc(b1-4)][Gal(b1-4)GlcNAc(b1-2)Man(a1-6)]Man(b1-4)GlcNAc(b1-4)GlcNAc
# How it was run: as §1
# [9] = target: Gal(b1-4)GlcNAc(b1-2)Man(a1-3)[Man(a1-6)]Man(b1-4)GlcNAc(b1-4)GlcNAc
# How it was run: as §1
# [10] = target: Gal(b1-4)GlcNAc(b1-2)Man(a1-6)Man(b1-4)GlcNAc(b1-4)GlcNAc
# How it was run: as §1
# [11] = target: Gal(b1-4)GlcNAc(b1-2)Man(a1-6)[GlcNAc(b1-2)Man(a1-3)]Man(b1-4)GlcNAc(b1-4)GlcNAc
# How it was run: as §1
# [12] = target: Gal(b1-4)GlcNAc(b1-2)Man(a1-6)[Man(a1-3)]Man(b1-4)GlcNAc(b1-4)GlcNAc
# How it was run: as §1
# [13] = target: Gal(b1-4)GlcNAc(b1-2)[Gal(b1-4)GlcNAc(b1-4)]Man(a1-3)[Gal(b1-4)GlcNAc(b1-2)Man(a1-6)]Man(b1-4)GlcNAc(b1-4)GlcNAc
# How it was run: as §1
# [14] = target: Gal(b1-4)GlcNAc(b1-2)[Gal(b1-4)GlcNAc(b1-4)]Man(a1-3)[Gal(b1-4)GlcNAc(b1-2)[Gal(b1-4)GlcNAc(b1-6)]Man(a1-6)]Man(b1-4)GlcNAc(b1-4)GlcNAc
# How it was run: as §1
# [15] = target: Gal(b1-4)GlcNAc(b1-2)[Gal(b1-4)GlcNAc(b1-4)]Man(a1-3)[GlcNAc(b1-4)][Gal(b1-4)GlcNAc(b1-2)Man(a1-6)]Man(b1-4)GlcNAc(b1-4)GlcNAc
# How it was run: as §1
# [16] = target: Gal(b1-4)GlcNAc(b1-2)[Gal(b1-4)GlcNAc(b1-4)]Man(a1-3)[GlcNAc(b1-4)][Gal(b1-4)GlcNAc(b1-2)[Gal(b1-4)GlcNAc(b1-6)]Man(a1-6)]Man(b1-4)GlcNAc(b1-4)GlcNAc
# How it was run: as §1
# [17] = target: Gal(b1-4)GlcNAc(b1-2)[Gal(b1-4)GlcNAc(b1-6)]Man(a1-6)[Gal(b1-4)GlcNAc(b1-2)Man(a1-3)]Man(b1-4)GlcNAc(b1-4)GlcNAc
# How it was run: as §1
# [18] = target: Gal(b1-4)GlcNAc(b1-2)[Gal(b1-4)GlcNAc(b1-6)]Man(a1-6)[Gal(b1-4)GlcNAc(b1-2)Man(a1-3)]Man(b1-4)GlcNAc(b1-4)[Fuc(a1-6)]GlcNAc
# How it was run: as §1
binder,measurement,setting,value
B1,glycan array binding signal (z-score),Gal(b1-4)Glc,-0.5
same,glycan array binding signal (z-score),Gal(b1-4)Glc6S,-0.361
same,glycan array binding signal (z-score),Gal(b1-4)GlcNAc,-0.41
same,glycan array binding signal (z-score),[1],0.19
same,glycan array binding signal (z-score),Gal(b1-4)GlcNAc(b1-2)Man,-0.565
same,glycan array binding signal (z-score),[2],0.493
same,glycan array binding signal (z-score),[3],-0.421
same,glycan array binding signal (z-score),[4],-0.374
same,glycan array binding signal (z-score),[5],-0.133
same,glycan array binding signal (z-score),[6],-0.612
same,glycan array binding signal (z-score),[7],-0.429
same,glycan array binding signal (z-score),[8],-0.7
same,glycan array binding signal (z-score),[9],-0.055
same,glycan array binding signal (z-score),[10],-0.472
same,glycan array binding signal (z-score),[11],-0.564
same,glycan array binding signal (z-score),[12],1.34
same,glycan array binding signal (z-score),[13],0.491
same,glycan array binding signal (z-score),[14],-0.611
same,glycan array binding signal (z-score),[15],-0.523
same,glycan array binding signal (z-score),[16],-0.001
same,glycan array binding signal (z-score),[17],-0.295
same,glycan array binding signal (z-score),[18],0.554
